Source: PubChem BioAssay AID1508623 (National Center for Advancing Translational Sciences (NCATS), 2021)
The campaign covered roughly 48,000 compounds. About 450 (0.94%) were called active. About 19% were inconclusive and are not listed. The call rests on the fitted dose curve; in most records, active means well fitted inhibition curve with a large enough effect; inconclusive means small, poorly fitted or top-dose-only effect; inactive means no such curve, though single readings can be large or run the other way. Some of the results follow.

Assay: Primary qHTS for Identification of Small Molecule Inhibitors of Huntingtin Promoter Activity; further: nearly all actives have a fitted effect of over 50% in size
Conditions: HEK293 HTT promoter firefly luciferase reporter (activity 0% = vehicle and -100% = no light), 24 h; series mostly up to 57.5 µM; activity change, negative = inhibition: at the top concentration
Summary of the method: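 Firefly luciferase signal from promoter-reporter HEK293 cells was scaled between vehicle (0%) and zero RLU (-100%). Compounds were tested at final concentrations of up to 57.5 uM over 24 h at 37 degrees C. PTC124 at 50 uM final served as control inhibitor.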

Activity change, negative = inhibition, inactive:
O=C(Cn1cc(SCc2ccccc2)c2ccccc21)N1CCCCCC1 1.71%
Cc1ccc(-c2nc(SCC(=O)N3CCc4ccccc43)c3c(=O)n(C)c(=O)n(C)c3n2)cc1 7.2%
Cc1ccc(N2CCN(c3c(CN4CCCC4)c(=O)oc4ccccc34)CC2)c(C)c1 5.69%
Cc1ccc(S(=O)(=O)n2nc(C)c(S(=O)(=O)N3CCC(C)CC3)c2C)cc1 -7.93%
O=C(NCc1ccccc1)c1ccc2c(c1)N(Cc1cccc(Cl)c1)C(=O)c1ccccc1S2(=O)=O -13%
Cc1ccc2nc(-c3ccc(Cl)c(NC(=O)c4cccc([N+](=O)[O-])c4C)c3)oc2c1 10.9%
CCn1ccc2cc(S(=O)(=O)N3CCC(C(=O)NCc4ccc(OC)cc4)CC3)ccc21 0%
O=C(COCc1cc(-c2ccco2)on1)Nc1cccc(O)c1 8.82%
Cn1c(=O)c(=O)n(C)c2cc(S(=O)(=O)CCC(=O)Nc3cccc(C(F)(F)F)c3)ccc21 -5.05%
Cc1ccc(-c2nc3c(cnn3-c3ccccc3)c(=O)n2-c2cccc(Cl)c2)cc1 -14.6%
CN(C)S(=O)(=O)c1ccc2c(c1)N(CC(=O)N1CCN(c3cccc(Cl)c3)CC1)CCS2 -9.4%
COc1cc(OC)c(N(C)C(=O)C2CCCN(c3ncnc4c3nc3n4CCCCC3)C2)cc1Cl (stereo not given) -24.3%
COc1cc(NC(=O)Nc2nnc(N3CCCCCC3)s2)cc(OC)c1 2.63%
CC1CCCN(Cc2c(O)ccc3c(=O)c(Oc4ccc(C(C)(C)C)cc4)c(C(F)(F)F)oc23)C1 (stereo not given) -14.7%
CCOc1ccc(NC(=O)Cn2c(=O)n(Cc3ccccc3)c(=O)c3sc4ccccc4c32)cc1 -60.4%
Cc1cc(C)cc(NC(=O)CN2C(=O)CSc3ccc(S(=O)(=O)N4CCCC4)cc32)c1 -10.6%
CCOc1ccc(NC(=O)c2c(NC(=O)c3cccc(C)c3)sc3c2CCC3)cc1 -12.3%
O=C(NCC1CCN(Cc2cccc(F)c2)CC1)c1cc2ccc3cccnc3c2[nH]1 -1.85%
CC1=C(c2ccc(C(C)C)cc2)S(=O)(=O)N=C1N1CCC(C(=O)NCc2ccco2)CC1 -24.2%
Cc1ccc(CNC(=O)Cn2c(=O)cc(-c3ccccc3)c3c(C)nn(C)c32)cc1 0%
Cc1c(C(=O)NCCc2ccccc2)cccc1-n1cnc2cccnc21 -12%
CCc1ccc(NC(=O)CC2C(=O)N(c3ccc(OC)cc3)C(=O)N2Cc2ccc(OC)cc2)cc1 (stereo not given) -20.8%
COc1ccccc1CNC(=O)C1CCN(S(=O)(=O)c2c(C)noc2/C=C/c2cccs2)CC1 -20.1%
Cc1cc(=O)n(Cc2ccc(F)cc2Cl)c2c1c(C)nn2-c1ccccc1 -17.8%
CCn1c(=O)c2sccc2n2c(CCCC(=O)N3CCN(c4cc(C)ccc4C)CC3)nnc12 -14%
Cc1ccn2c(=O)c(C(=O)NCCc3ccc(S(N)(=O)=O)cc3)c(O)nc2c1 -12.9%
Cc1ccc(NCc2ccccc2-c2nnc(-c3ccccc3Cl)o2)cc1Cl 14.3%
COc1ccc(N2C(=O)CSC23C(=O)N(CC(=O)NCc2ccccc2)c2ccccc23)cc1 (stereo not given) -5.66%
COc1ccc(S(=O)(=O)NC2(C(F)(F)F)NC(=O)N(CCc3ccc(OC)c(OC)c3)C2=O)cc1 (stereo not given) -8.15%
CS(=O)(=O)NCCc1csc2nc(-c3ccccc3)nn12 -0.177%
Cc1cc(Nc2ccccc2Cl)n2nc(-c3ccco3)nc2n1 -19.1%
Cc1ccc2onc(CC(=O)Nc3cc(F)ccc3F)c2c1 28%
Cc1ccc(-c2cc(C(F)(F)F)n3nc(C(=O)Nc4sc5c(c4C#N)CCC(C)C5)cc3n2)cc1 (stereo not given) -4.31% [at 11.5 µM]
O=C(CSc1nnc2scc(-c3ccc(Cl)cc3)n12)Nc1ccccc1F -20.8%
CCOc1cccc(CC(=O)N2CCc3c([nH]c4ccccc34)C2c2ccc(C)cc2)c1OCC (stereo not given) -24%
COc1ccc(C(=O)Nc2ccc3c(c2)N(C2CCCC2)C(=O)c2ccccc2S3)cc1OC -22.6%
COc1cc(C(=O)Nc2ccc(Cl)c(-c3nc4ncccc4o3)c2)cc(OC)c1OC 3.72%
Cc1ccccc1CNC(=O)CCCn1c(=O)c2cccn2c2ccccc21 4.38%
Cc1cccc2c1-c1sc(C(=O)N3CCN(c4ccc(F)cc4)CC3)cc1CO2 5.94%
COCCNC(=O)CN1C(=O)COc2ccc(S(=O)(=O)N3CCOCC3)cc21 -8.64%
CCc1ccccc1N(C)C(=O)Nc1cn(CC(C)C)c(=O)c2ccccc12 -9.87%
C=Cc1ccc(CSc2nc(-c3ccccc3C)nc3c2Cc2c(CO)cnc(C)c2O3)cc1 -11.9%
CCn1cc(C(=O)OCC(=O)Nc2cccc(Cl)c2C)c(=O)c2ccc(C)nc21 -6.72%
CCOc1ccc(CNC(=O)CCn2c(=O)c3cccn3c3cccnc32)cc1 0.75%
O=C(CSc1nc(=O)n(Cc2ccco2)c2c1CCC2)NCc1ccccc1Cl 3.61%
N#Cc1ccc(NC(=O)COCc2cc(-c3ccc4c(c3)OCO4)on2)cc1 -9.17%
COC(=O)c1scc(-c2ccc(C)cc2)c1S(=O)(=O)Nc1ccc(OC(F)(F)F)cc1 0.0122%
CCOc1ccc(N2CC(NC(=O)c3ccc(S(=O)(=O)N4CCOCC4)cc3)CC2=O)cc1 (stereo not given) -17.5%
Cc1cc(=O)n2nc(N3CCC(C(=O)NCCCOC(C)C)CC3)sc2n1 -13.1%
O=C(CSc1nnc(CNC(=O)c2ccccc2)n1-c1ccc(F)cc1)Nc1ccccc1F -10.1%
NS(=O)(=O)c1cc2c(cc1Cl)NC(CC1CCCC1)NS2(=O)=O (stereo not given) 1.28%
O=C(CC1NCCNC1=O)Nc1ccc(F)c(Cl)c1 (stereo not given) 11.8%
CCCCOc1ccc(C(=O)Nc2sc3c(c2C(=O)OCC)CCCCC3)cc1 -5.02%
COc1ccc(Nc2ncc(C(=O)Nc3ccc(F)cc3F)c3ccccc23)cc1 -17.7%
CCOCCCn1c(SCC(=O)Nc2ccc(F)cc2)nc2c(sc3ccccc32)c1=O -13%
CCC(C(=O)Nc1cc(-c2cn3cccnc3n2)ccc1C)c1ccccc1 (stereo not given) 7.86%
COc1ccccc1N1CCN(S(=O)(=O)c2ccc3c(c2)CCCN3C(C)=O)CC1 -27%
CC(C)(C)NCC(O)c1cc(O)cc(O)c1 (stereo not given) -0.878%
O=C(c1ccc2c(c1)N(Cc1ccccc1Cl)C(=O)c1ccccc1S2)N1CCCC1 -17.3%
Cc1ccccc1CNC(=O)CN1CCSc2ccccc21 3.56%
